According to PubChem BioAssay (NCATS):
The shares of active, inactive and inconclusive entries below differ from those in the screen. Where a call stands in place of a potency, no number is given. For some assays here: Potencies of inconclusive entries are doubtful fits and often do not repeat. For some assays here: “Side channel” marks fits to a control or component signal instead of the main read-out. Active and inactive are the calls of the source. Unless noted, calls follow the shape of the dose curve; as a rule, active = well fitted curve in the direction sought with a large enough effect; inconclusive = small, poorly fitted or top-dose-only effect, or another doubt; inactive = no such curve, though single readings can be large; an effect the other way counts as inactive or inconclusive.

What was measured:
[1] = test system: Zika virus NS2B-NS3 protease (linked); assay: 384 well plate NINDS AMC confirmatory qHTS for Zika virus inhibitors (AID 1347163); also: potency is read from the fitted curve at half-maximal effect; nearly all actives have a fitted effect of over 50% in size
Method in brief: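 Enzyme (5, 30 or 60 nM final) first met test compounds for ~15 min. The AMC-tagged peptide Ac-VKTGKR-AMC followed at 30 microM. Fluorescence was then recorded at 25 min and scaled against no-enzyme and no-inhibitor wells.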

[2] = target: Muscarinic acetylcholine receptor M1 (Rattus norvegicus) (UniProt P08482); assay: qHTS Assay for Antagonists of Acetylcholine Muscarinic M1 Receptor: Measurement of IP-One Response (AID 944); also: potency is read from the fitted curve at half-maximal effect; nearly all actives have a fitted effect of over 75% in size
Sequence of UniProt P08482 (P08482 whole entry, looked up): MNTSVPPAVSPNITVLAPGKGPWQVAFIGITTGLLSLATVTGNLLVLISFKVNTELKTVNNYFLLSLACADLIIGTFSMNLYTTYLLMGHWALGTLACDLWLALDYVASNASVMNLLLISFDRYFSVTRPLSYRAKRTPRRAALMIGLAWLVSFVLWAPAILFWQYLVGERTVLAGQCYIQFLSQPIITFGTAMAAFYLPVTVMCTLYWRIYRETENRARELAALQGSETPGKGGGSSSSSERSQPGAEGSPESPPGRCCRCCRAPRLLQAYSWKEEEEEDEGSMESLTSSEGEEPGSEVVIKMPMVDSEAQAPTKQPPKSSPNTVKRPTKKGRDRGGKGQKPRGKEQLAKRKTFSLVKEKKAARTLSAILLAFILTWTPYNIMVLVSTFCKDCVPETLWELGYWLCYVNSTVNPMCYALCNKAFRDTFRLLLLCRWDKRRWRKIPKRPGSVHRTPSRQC

[3] = MultiTox-Fluor Cytotoxicity Assay - LYMP1-001 - Live Cells (AID 947); also: potency is read from the fitted curve at half-maximal effect
[4] = target: Thioredoxin reductase 1, cytoplasmic (Rattus norvegicus) (UniProt O89049); assay: qHTS Assay for Inhibitors of Mammalian Selenoprotein Thioredoxin Reductase 1 (TrxR1) (AID 488773); conditions: Potency: inhibition;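 also: drop in NADPH fluorescence over an 8 min run after selenite addition; nearly all actives have a fitted effect of over 40% in size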
Sequence of UniProt O89049 (O89049 whole entry, looked up): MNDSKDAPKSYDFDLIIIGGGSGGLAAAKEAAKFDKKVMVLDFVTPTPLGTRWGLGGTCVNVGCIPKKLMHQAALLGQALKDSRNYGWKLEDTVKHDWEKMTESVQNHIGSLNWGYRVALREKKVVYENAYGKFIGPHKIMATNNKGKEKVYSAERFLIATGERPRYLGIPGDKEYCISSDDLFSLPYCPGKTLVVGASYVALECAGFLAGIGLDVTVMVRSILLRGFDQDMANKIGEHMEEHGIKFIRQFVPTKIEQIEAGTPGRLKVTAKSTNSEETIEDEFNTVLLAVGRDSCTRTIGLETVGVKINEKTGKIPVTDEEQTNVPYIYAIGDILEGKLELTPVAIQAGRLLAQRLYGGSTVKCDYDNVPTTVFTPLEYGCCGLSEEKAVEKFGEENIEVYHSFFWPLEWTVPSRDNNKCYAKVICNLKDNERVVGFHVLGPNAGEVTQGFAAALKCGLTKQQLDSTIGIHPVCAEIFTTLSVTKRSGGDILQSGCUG
Method in brief: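 Inhibition is scored from the loss of NADPH fluorescence between first and last reads of an 8-min kinetic run. Selenite (400 uM) was the substrate, added after 15 min compound preincubation at room temperature.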

[5] = target: Glucocorticoid receptor (Homo sapiens) (UniProt P04150); assay: qHTS assay for small molecule antagonists of glucocorticoid receptor signaling (AID 588533; active = well fitted inhibition curve with a large enough effect in the signal ratio, with a control signal flat, not every such curve was filed as active; inconclusive = small, poorly fitted or top-dose-only effect, or effect the other way, or a change in a side signal; the % refers to the signal ratio;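 also: cells stimulated with 2 nM dexamethasone as agonist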); conditions: HeLa MMTV-bla, GRE beta-lactamase ratio, antagonist mode, 18 h; activity change, negative = inhibition: at 76.8 µM (top of the series)
Sequence of UniProt P04150 (P04150 whole entry, looked up): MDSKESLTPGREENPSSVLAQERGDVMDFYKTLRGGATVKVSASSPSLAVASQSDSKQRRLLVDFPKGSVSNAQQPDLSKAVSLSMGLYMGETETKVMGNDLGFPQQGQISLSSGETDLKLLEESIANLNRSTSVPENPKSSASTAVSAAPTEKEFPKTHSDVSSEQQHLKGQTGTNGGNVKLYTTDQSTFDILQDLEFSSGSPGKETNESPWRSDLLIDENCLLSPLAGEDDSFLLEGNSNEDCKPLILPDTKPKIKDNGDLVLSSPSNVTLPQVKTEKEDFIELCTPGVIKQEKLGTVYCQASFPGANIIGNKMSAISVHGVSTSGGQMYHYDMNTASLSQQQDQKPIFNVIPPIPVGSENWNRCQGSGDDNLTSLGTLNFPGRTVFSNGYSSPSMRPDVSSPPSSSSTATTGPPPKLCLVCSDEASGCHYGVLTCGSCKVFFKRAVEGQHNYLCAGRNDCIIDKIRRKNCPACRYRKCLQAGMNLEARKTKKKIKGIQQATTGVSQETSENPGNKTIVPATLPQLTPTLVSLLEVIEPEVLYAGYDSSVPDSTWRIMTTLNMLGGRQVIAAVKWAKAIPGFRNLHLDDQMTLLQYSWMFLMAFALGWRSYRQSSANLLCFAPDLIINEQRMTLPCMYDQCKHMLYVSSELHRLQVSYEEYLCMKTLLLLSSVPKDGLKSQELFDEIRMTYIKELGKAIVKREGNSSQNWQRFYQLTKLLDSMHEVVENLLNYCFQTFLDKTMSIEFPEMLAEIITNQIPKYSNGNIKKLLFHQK

[6] = target: Thyroid hormone receptor beta (Homo sapiens) (UniProt P10828); assay: qHTS assay for small molecule antagonists of thyroid hormone receptor beta signaling (AID 588547; active = well fitted inhibition curve with a large enough effect in the signal ratio, with a control signal flat, not every such curve was filed as active; inconclusive = small, poorly fitted or top-dose-only effect, or effect the other way, or a change in a side signal; the % refers to the signal ratio; also: potency is read from the fitted curve at half-maximal effect); conditions: TR-UAS-bla HEK293, beta-lactamase ratio, antagonist mode, 18 h
Sequence of UniProt P10828 (P10828 whole entry, looked up): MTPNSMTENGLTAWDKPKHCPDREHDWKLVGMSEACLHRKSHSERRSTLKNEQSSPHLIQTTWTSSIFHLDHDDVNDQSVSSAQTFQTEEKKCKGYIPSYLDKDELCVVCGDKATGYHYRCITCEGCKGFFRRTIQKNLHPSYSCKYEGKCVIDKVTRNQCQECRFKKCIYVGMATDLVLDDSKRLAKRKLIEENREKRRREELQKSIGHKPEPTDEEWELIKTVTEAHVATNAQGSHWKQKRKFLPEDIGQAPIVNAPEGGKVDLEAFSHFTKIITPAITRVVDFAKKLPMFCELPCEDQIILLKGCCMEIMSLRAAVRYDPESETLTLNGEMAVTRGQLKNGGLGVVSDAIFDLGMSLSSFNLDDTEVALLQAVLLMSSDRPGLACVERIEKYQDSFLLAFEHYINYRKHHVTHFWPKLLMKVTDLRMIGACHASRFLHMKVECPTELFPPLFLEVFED
Method in brief: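 TR-UAS-bla GripTite HEK293 cells in 2% charcoal/dextran FBS medium; compounds 0.59 nM to 92 uM with T3 at 0.4nM final, 18 h at 37 C. Beta-lactamase read by CCF4 fluorescence (460/530 nm); Hill fits gave IC50 and efficacy.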

[7] = qHTS assay for small molecule agonists of the antioxidant response element (ARE) signaling pathway measured by Nrf2-dependant transcriptional activity (AID 720636; active = well fitted curve in the direction sought with a large enough effect in the repeat runs; inconclusive = weak or mixed curves; inactive = no such curve, though single readings can be large; an effect the other way counts as inactive or inconclusive; also: potency is read from the fitted curve at half-maximal effect)
Method in brief: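 Cells: ARE-luc HepG2 with Nrf2-responsive luciferase. Medium contained 1% dialyzed FBS. Compound exposure lasted 16 hr at 37 C and 5% CO2, followed by ONE-Glo luciferase detection.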

[8] = target: Atrial natriuretic peptide receptor 1 (Homo sapiens) (UniProt P16066); assay: Natriuretic polypeptide receptor (hNpr1) antagonism - Pilot screen (AID 1347049; calls by dose curve;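 also: agonist-evoked cGMP luminescence read 20 min after hNppA addition; potency is read from the fitted curve at half-maximal effect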)
Method in brief: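 cGMP-sensor HEK293/hNpr1 cells, 1500/well, plated overnight at 37C. 2% GloSensor reagent, 2 h RT. Compound (23 nL pin transfer) 30 min RT, baseline luminescence pre-read. 0.1 nM hNppA, 20 min RT, post-read.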

[9] = target: Atrial natriuretic peptide receptor 2 (Homo sapiens) (UniProt P20594); assay: Natriuretic polypeptide receptor (hNpr2) antagonism - Pilot subtype selectivity assay (AID 1347050; calls by dose curve)
Sequence of UniProt P20594 (P20594 whole entry, looked up): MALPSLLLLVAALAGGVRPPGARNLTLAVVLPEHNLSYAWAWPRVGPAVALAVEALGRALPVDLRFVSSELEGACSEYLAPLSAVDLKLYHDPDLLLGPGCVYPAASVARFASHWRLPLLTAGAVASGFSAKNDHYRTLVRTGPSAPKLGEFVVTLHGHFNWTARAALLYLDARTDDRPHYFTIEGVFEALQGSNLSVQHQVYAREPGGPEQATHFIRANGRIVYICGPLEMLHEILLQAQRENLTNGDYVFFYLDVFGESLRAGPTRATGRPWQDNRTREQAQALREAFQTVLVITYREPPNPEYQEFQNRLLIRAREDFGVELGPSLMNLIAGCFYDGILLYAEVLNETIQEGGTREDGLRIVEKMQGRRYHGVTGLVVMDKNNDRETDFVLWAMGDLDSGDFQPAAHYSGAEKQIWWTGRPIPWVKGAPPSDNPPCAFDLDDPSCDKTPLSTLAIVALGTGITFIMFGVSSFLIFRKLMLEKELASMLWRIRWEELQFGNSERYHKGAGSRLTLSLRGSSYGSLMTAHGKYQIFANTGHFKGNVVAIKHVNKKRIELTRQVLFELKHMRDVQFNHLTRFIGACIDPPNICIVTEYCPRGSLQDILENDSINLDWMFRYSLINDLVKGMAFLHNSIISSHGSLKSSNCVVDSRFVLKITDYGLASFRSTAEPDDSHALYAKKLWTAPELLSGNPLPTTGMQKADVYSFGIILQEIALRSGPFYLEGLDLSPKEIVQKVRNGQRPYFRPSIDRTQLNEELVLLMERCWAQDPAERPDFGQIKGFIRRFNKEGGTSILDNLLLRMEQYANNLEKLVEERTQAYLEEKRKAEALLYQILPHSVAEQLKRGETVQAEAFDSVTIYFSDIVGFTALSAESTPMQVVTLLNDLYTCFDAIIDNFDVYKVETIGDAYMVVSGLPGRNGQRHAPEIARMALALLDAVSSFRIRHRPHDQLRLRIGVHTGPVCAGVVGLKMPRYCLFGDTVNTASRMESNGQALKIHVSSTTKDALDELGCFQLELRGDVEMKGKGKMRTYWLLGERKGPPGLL
Method in brief: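 Luminescence from a genetically encoded cGMP luciferase biosensor in hNpr2-expressing HEK293 cells is read before and 20 min after adding 1 nM hNppC. Test compounds, in interplate 1:5 titrations, are added 30-50 min ahead of the agonist.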

[10] = target: Lysine-specific demethylase 5B (Homo sapiens) (UniProt Q9UGL1); assay: Optimization screen for KDM5B Histone Demethylases FDH coupled qHTS against the LOPAC library (AID 1347166); conditions: KDM5B demethylation, FDH-coupled NADH fluorescence (FDH is formaldehyde dehydrogenase); activity, negative = inhibition: at 57.5 µM (top of the series) unless noted
Sequence of UniProt Q9UGL1 (Q9UGL1 whole entry, looked up): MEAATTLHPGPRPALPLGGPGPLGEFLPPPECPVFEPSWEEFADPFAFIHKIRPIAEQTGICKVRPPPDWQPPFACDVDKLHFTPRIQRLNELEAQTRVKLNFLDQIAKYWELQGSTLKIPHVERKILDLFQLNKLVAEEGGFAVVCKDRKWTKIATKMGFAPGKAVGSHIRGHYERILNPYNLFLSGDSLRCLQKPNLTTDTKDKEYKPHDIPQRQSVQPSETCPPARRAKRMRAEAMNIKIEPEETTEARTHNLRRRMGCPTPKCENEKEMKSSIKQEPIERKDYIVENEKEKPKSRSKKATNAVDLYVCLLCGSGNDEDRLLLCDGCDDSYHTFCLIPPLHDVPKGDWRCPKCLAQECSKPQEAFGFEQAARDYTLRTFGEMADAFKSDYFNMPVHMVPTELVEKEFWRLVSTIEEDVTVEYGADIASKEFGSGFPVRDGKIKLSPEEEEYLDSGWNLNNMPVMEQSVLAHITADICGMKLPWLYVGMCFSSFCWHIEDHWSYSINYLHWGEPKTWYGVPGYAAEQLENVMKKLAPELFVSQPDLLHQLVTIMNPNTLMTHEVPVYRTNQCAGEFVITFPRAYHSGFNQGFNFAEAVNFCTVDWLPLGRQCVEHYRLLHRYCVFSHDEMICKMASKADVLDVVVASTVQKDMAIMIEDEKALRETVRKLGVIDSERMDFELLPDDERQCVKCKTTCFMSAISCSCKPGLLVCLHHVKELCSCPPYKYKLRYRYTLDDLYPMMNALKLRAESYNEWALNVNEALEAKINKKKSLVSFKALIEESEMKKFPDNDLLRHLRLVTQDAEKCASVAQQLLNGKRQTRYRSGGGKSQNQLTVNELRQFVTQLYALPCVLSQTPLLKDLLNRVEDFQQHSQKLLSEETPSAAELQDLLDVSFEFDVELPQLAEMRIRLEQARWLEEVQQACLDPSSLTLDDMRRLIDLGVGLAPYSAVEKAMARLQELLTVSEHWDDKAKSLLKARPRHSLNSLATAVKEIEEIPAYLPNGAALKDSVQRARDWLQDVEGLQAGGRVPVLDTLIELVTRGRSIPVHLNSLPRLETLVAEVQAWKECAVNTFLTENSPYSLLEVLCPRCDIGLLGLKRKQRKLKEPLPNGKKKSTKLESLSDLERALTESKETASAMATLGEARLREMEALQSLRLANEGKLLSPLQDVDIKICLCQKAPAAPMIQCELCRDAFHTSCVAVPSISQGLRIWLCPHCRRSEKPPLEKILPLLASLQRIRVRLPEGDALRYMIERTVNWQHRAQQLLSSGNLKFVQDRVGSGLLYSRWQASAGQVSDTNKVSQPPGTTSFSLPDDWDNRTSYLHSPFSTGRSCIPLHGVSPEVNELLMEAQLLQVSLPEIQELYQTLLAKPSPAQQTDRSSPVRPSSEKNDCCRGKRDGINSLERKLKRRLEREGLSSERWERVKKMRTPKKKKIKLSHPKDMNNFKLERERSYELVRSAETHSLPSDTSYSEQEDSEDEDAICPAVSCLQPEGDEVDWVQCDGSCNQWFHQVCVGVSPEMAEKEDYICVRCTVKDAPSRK
Method in brief: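 KDM5BDeltaAP (200nM final) in 50mM HEPES pH 7.5, 0.01% Tween-20 was preincubated with compound for 10 min at room temperature. A substrate mix of 12.5uM H3K4Me3, 25uM a-ketoglutarate, ascorbate, Fe2+, NAD+ and formaldehyde dehydrogenase was then added. NADH fluorescence (340/450 nm) was read initially and after 30 min.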

[11] = qHTS of pediatric cancer cell lines to identify multiple opportunities for drug repurposing: Confirmatory screen for NB1643 cells (AID 1347109); also: nearly all actives have a fitted effect of over 45% in size
Method in brief: (§1)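 Viability after 48 h compound treatment at 37C, 500-1,000 cells/well, read as ATP luminescence with CellTiter-Glo. Primary screens used 11-point (MIPE, 0.78 nM-46 µM) or 8-point (NPC, 0.59 nM-46 µM) final concentrations; follow-up screens used 11-point dilutions.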

[12] = qHTS of pediatric cancer cell lines to identify multiple opportunities for drug repurposing: Confirmatory screen for SK-N-MC cells (AID 1347111);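 also: cells exposed to compound for 48 h before the readout; nearly all actives have a fitted effect of over 70% in size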
Method in brief: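 SK-N-MC cells at 500-1,000 cells/well in growth media were pre-incubated 5 h, then exposed to compounds at 11-point dilutions for 48 h at 37 degrees C, 5% CO2. Viability was read as CellTiter-Glo luminescence.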

[13] = qHTS of pediatric cancer cell lines to identify multiple opportunities for drug repurposing: Confirmatory screen for TC32 cells (AID 1347118); also: nearly all actives have a fitted effect of over 65% in size
Method in brief: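 Luminescent ATP read-out (CellTiter-Glo) of metabolically active TC32 cells after 48 h exposure. Concentration-response curves came from 11-point (MIPE, 0.78 nM–46 µM) or 8-point (NPC, 0.59 nM–46 µM) primary titrations; follow-up used 11 points.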

[14] = qHTS of pediatric cancer cell lines to identify multiple opportunities for drug repurposing: Confirmatory screen for MG 63 (6-TG R) cells (AID 1347119); conditions: MG-63 (6-TG resistant) osteosarcoma viability; activity change, negative = cytotoxicity: at 45.9 µM (top of the series); also: nearly all actives have a fitted effect of over 55% in size
Method in brief: as §1

[15] = qHTS of pediatric cancer cell lines to identify multiple opportunities for drug repurposing: Confirmatory screen for Rh41 cells (AID 1347123);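 also: 48 h compound exposure; nearly all actives have a fitted effect of over 60% in size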
Method in brief: as §1

[16] = qHTS of pediatric cancer cell lines to identify multiple opportunities for drug repurposing: Confirmatory screen for Saos-2 cells (AID 1347127); also: nearly all actives have a fitted effect of over 60% in size
Method in brief: as §1

[17] = target: Mitogen-activated protein kinase 10 (Mus musculus) (UniProt Q61831); assay: JNK3 AlphaScreen Assay (AID 530; active = well fitted curve in either direction with a large enough effect, not every such curve was filed as active; inconclusive = small, poorly fitted or top-dose-only effect, or another doubt;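 also: kinase came from lysate of stimulated human HepG2 cells; signal reports phosphorylation of biotinylated GST-cJun 1-79 at Ser73 with 10 µM ATP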); conditions: JNK3 lysate, c-Jun phosphorylation; activity change, negative = inhibition: at 57.1 µM (top of the series)
Method in brief: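 HepG2 lysate (IL-1b/TNFa pre-activated) + biotin-GST-cJun 1-79 + anti-pSer73 cJun; cpd titration, 15 min RT; ATP 10 uM start; Tris pH 7.6, MgCl2, DTT, vanadate; beads in EDTA buffer; AlphaScreen.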

[18] = Cell Viability - SH-SY5Y (AID 544); conditions: SH-SY5Y neuroblastoma cell viability; at 92.2 µM (top of the series);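 also: cells exposed to compound for 40 hours; nearly all actives have a fitted effect of over 55% in size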
Method in brief: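 SH-SY5Y, 1500 cells/well, 5 hr pre-incubation 37 °C; cpd 40 hr 37 °C; CellTiter-Glo 20 min RT; luminescence (ATP) read. qHTS concentration-response, Hill fit → AC50. Tamoxifen, doxorubicin as positive controls.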

[19] = Cell Viability - N2a (AID 540); conditions: N2a mouse neuroblastoma cell viability; activity change, negative = cytotoxicity: at 92.2 µM (top of the series);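 also: cells exposed to compound for 40 h at 37 °C; nearly all actives have a fitted effect of over 45% in size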
Method in brief: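 N2a mouse neuroblastoma, 1500 cells/well, 5 hr settle; compound 40 hr, 37 °C; CellTiter-Glo 20 min RT; luminescence; Hill-fit AC50.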

[20] = qHTS Assay for Identification of Small Molecule Agonists for Hypoxia Response Element Signaling Pathway (AID 914; active = well fitted activation curve with a large enough effect in the signal ratio, with a control signal flat, not every such curve was filed as active; inconclusive = small, poorly fitted or top-dose-only effect, or effect the other way, or a change in a side signal; the % refers to the signal ratio; also: top concentration of the series differs between compounds); conditions: ME-180 (cervical carcinoma) HRE-bla reporter, beta-lactamase ratio, CoCl2, 17 h; activation: hits give high values
Method in brief: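 Read-out: CCF4 FRET ratio of 460nm to 530nm emission (excitation 405nm) after 2.5 hours at room temperature, taken from HRE-bla ME-180 cells that had been exposed to compound and EC50 CoCl2 for 17 hours.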
Tags tell the direction and shape of the fitted curve or compound fluorescence and quenching.

CC(=O)OC12CC(C)C(OC(=O)c3ccccc3)C1/C=C(/C)C(OC(=O)c1ccccc1)CC(=O)C(C)(C)/C=C/C(C)C2=O (stereo not given)
Potency [1]: inconclusive: 31.6 µM [inhibitor, full curve]

O=C1NC(=O)C(c2ccccc2)(c2ccccc2)N1
Potency [2]: inconclusive: 10 µM [inhibitor, partial curve, poor fit]
Potency [3]: inconclusive: 0.126 µM [cytotoxic, full curve, poor fit]
Potency [4]: inactive
Potency [5]: inactive
Potency [6]: inconclusive: 0.0014 µM [side channel, falling, full curve, poor fit]
Potency [7]: inconclusive: 3.44 µM [activator, full curve, poor fit]
Potency [8]: inconclusive: 8.49 µM [inhibitor, single point]
Potency [9]: inactive
Potency [10]: inactive

NC(=O)CC[C@@H]1NC(=O)[C@H](Cc2ccccc2)NC(=O)[C@H](Cc2ccc(O)cc2)NC(=O)CCSSC[C@@H](C(=O)N2CCC[C@H]2C(=O)N[C@@H](CCCN=C(N)N)C(=O)NCC(N)=O)NC(=O)[C@H](CC(N)=O)NC1=O
Potency [11]: inactive
Potency [12]: inactive
Potency [13]: inactive
activity change, negative = cytotoxicity [14]: inconclusive: -42.7% [cytotoxic]
Potency [15]: inactive
Potency [16]: inactive

Nc1ccc(S(=O)(=O)Nc2nccs2)cc1
Potency [17]: inactive
viability change, negative = cytotoxic [18]: inconclusive: -31.6%

NC(=O)c1ncn([C@@H]2O[C@H](CO)[C@@H](O)[C@H]2O)n1
activity change, negative = cytotoxicity [19]: inconclusive: -65.3%

O=C(OCCOCCO)c1ccccc1Nc1cccc(C(F)(F)F)c1
activation [20]: inconclusive: -25.6%
